About 200 (0.44%) of roughly 45,000 compounds were called active. Another 7% or so got no clear call; they are omitted. Calls follow the shape of the dose curve; as a rule, active = well fitted activation curve with a large enough effect; inconclusive = small, poorly fitted or top-dose-only effect; inactive = no such curve, though single readings can be large or run the other way. The list shows a part of the results.
Test: qHTS of TDP-43 Inhibitors: NCGC Sytravon Library Screen; also: 0% is about no effect; nearly all actives have a fitted effect of over 55% in size
Conditions: yeast TDP-43 toxicity rescue, BacTiter-Glo growth, 24 h; series mostly up to 46.1 µM; growth rescue (activation): at the top concentration
Outline: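 TDP-43-expressing yeast, pregrown in raffinose, seeded at OD600 0.02 in galactose medium with compound for 24 hr at 30 deg C. Growth read by BacTiter-Glo luminescence, so rescue of toxicity appears as activation.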

| SMILES | growth rescue (activation) |
| --- | --- |
| COc1ccc(N2C(=O)CCC(C(=O)N3CCN(c4ccccn4)CC3)C2c2ccc(F)cc2)cc1 (centres undefined) | inactive: -0.397% |
| CCOc1ccc(C(=O)OC(C)C(=O)N2CCN(Cc3ccccc3)CC2)cc1 (centres undefined) | inactive: -2.26% |
| COCc1[nH][nH]c(=O)c1C=Nc1ccc(F)cc1F | inactive: 22.1% |
| O=C(NCCCNC(=O)c1cc(Cl)ccc1Cl)c1ccco1 | inactive: -30% |
| COc1ccc(CN(CC(=O)NCc2ccccc2)C(=O)CCC(=O)Nc2ccccn2)cc1 | inactive: -8.84% |
| O=C(c1ccc(OC2CCN(Cc3ccccn3)CC2)cc1)N1CCCCCC1 | inactive: -2.68% |
| CCCCNC(=O)C1(C)CCCCN1C(=O)c1ccc2c(c1)CCO2 (centres undefined) | inactive: 3.67% |
| CN(C)S(=O)(=O)N1CCCC(C(=O)c2ccc(-c3ccccc3)c(F)c2)C1 (centres undefined) | inactive: 11.1% |
| COC(=O)c1ccc(NC(=O)C(=O)N2CCN(C(=S)Nc3cccc(C)c3C)CC2)cc1 | inactive: 6.4% |
| CC(C)(C)CC(=O)NCCCN1CCOCC1 | inactive: 8.52% |
| COCCNC(=O)Cn1c(=O)n(CCCCCC(=O)Nc2ccccc2)c(=O)c2sccc21 | inactive: -3.32% |
| CCCCOC(=O)c1ccc(NC(=O)C(=O)CC(=O)c2ccc(OC)cc2)cc1 | inactive: 9.25% |
| O=C(COC(=O)c1ccc2ncsc2c1)Nc1ncc(Cl)cc1Cl | inactive: 11.1% |
| O=C(Nc1ccccc1)NC(Cc1ccc(O)cc1)C(=O)O (centres undefined) | inactive: -7.78% |
| O=C(CSc1nnnn1-c1cccnc1)Nc1ccc(F)cc1F | inactive: -8.67% |
| Cc1cc(C)nc(NS(=O)(=O)c2ccc(NC(=O)C3(c4ccc([N+](=O)[O-])cc4)CCCC3)cc2)n1 | inactive: 18.5% |
| O=[N+]([O-])c1cc(Cl)ccc1N1CCCC1 | inactive: -6.56% |
| Cc1cc(C)cc(-n2c(SCC(=O)NCc3ccc4c(c3)OCO4)nc3ccccc3c2=O)c1 | inactive: 22.5% |
| CCOc1ccc(C(=O)/C=C/Nc2ccc(S(=O)(=O)Nc3cc(C)nc(C)n3)cc2)cc1 | inactive: 8.23% |
| COc1cccc2cc(C(=O)NCC3CCCO3)c(=O)oc12 (centres undefined) | inactive: 24.3% |
| CN(C)S(=O)(=O)c1ccc(C(=O)NCCc2ccco2)cc1 | inactive: -23.2% |
| O=C(c1ccccc1[N+](=O)[O-])N1CCN(Cc2ccc3c(c2)OCO3)CC1 | inactive: 16.3% |
| C=CCNC(=S)NNC(=O)c1csc(C)c1C | inactive: -4.27% |
| C=CCNc1nc(Nc2ccccc2F)nc(OCC)n1 | inactive: 20.1% |
| N#Cc1ccc(OCC(=O)NC2CCCCCC2)cc1 | inactive: 16.9% |
| Cc1onc(-c2ccccc2)c1C(=O)NCCSCc1ccco1 | inactive: 37.7% |
| NS(=O)(=O)c1ccc(CCNC(=O)CSc2ccc3ccccc3c2)cc1 | inactive: 2.83% |

| SMILES | growth rescue (activation) |
| --- | --- |
| Cc1c(NC(=O)c2cnc(Cl)c(Cl)c2)c(=O)n(-c2ccccc2)n1C | inactive: 7.28% |
| CC1(C(=O)N2CCN(c3ccccc3)CC2)CC1(Cl)Cl (centres undefined) | inactive: 36.1% |
| CCNC(=O)COC(=O)c1cc(C)n(-c2ccccc2)c1C | inactive: 8.73% |
| CC(=O)C1=C(O)C(=O)N(C2CCCCC2)C1c1ccccc1 (centres undefined) | inactive: -38.3% |
| Cc1cc(C(=O)CSc2nnc(-c3cccnc3)n2-c2ccccc2F)c(C)n1CC1CCCO1 (centres undefined) | inactive: 4.07% |
| O=C(NC(=O)c1c(F)cccc1F)Nc1ccccc1SC(F)F | inactive: -7.23% |
| CC(NC(=O)c1ccc(F)cc1Cl)C1CC2CCC1C2 (centres undefined) | inactive: 6.34% |
| NNC(=O)c1sccc1OCc1cccc(C(F)(F)F)c1 | inactive: 12.3% |
| O=C(O)c1cccc(N2C(=O)c3cc4cccc(Br)c4cc3C2=O)c1 | inactive: 8.73% |
| Cc1ccc(Oc2ccc(NS(=O)(=O)c3cccc(C(=O)O)c3)cc2)cc1 | inactive: -4.48% |
| Cc1ccc(NC(=O)N2C3CCCC2CC(NC(=O)C2CC2)C3)cc1 (centres undefined) | inactive: 15.6% |
| CC1CCN(C(=O)COC(=O)CCC(=O)c2ccc(F)cc2)CC1 | inactive: -2.51% |
| COc1ccc(C(=O)NC2CC2)cc1OC1CCN(Cc2ccccc2O)CC1 | inactive: 2.7% |
| CCN(CC)S(=O)(=O)c1cc(C(=O)OCC(=O)Nc2cccc(C)c2C)ccc1F | inactive: 1.17% |
| COc1ccc(CNCc2ccc(OC)c3ccccc23)cc1 | inactive: -1.01% |
| CCCCN(C(=O)CNC(=O)c1cccs1)C(C(=O)NC1CCCC1)c1ccncc1 (centres undefined) | inactive: 7.92% |
| C=CCn1cc(C(=O)N2CCN(CC)CC2)c(=O)c2cc(S(=O)(=O)N(CC)CC)ccc21 | inactive: 7.52% |
| O=C(O)c1cccc(S(=O)(=O)Nc2ccccc2Cc2ccccc2)c1 | inactive: -2.49% |
| COc1ccc2[nH]c(C(=O)NCc3ccccc3)c(C)c2c1 | inactive: 11.9% |
| Cc1ccccc1NC(=S)N=Nc1c(O)n(C)c2ccc(S(=O)(=O)N3CCOCC3)cc12 | inactive: 21.3% |
| Cc1ccc(/C=N/n2c(-c3ccc(Cl)cc3)n[nH]c2=S)s1 | inactive: 24.9% |
| COC(=O)C(Cc1c[nH]c2ccccc12)NC(=O)CNC(C)=O (centres undefined) | inactive: 16.6% |
| O=C(Nc1nc(-c2ccc(-c3ccccc3)cc2)cs1)c1cnccn1 | inactive: 20.4% |
| OC(COC(c1ccc(Cl)cc1)c1ccc(Cl)cc1)CN1CCc2ccccc2C1 (centres undefined) | inactive: 11.2% |
| COc1ccc(NC(=O)COC(=O)C23CC4CC(CC(NC(C)=O)(C4)C2)C3)cc1S(=O)(=O)N1CCOCC1 | inactive: -0.559% |
| Cc1cccc(N2CCN(c3c4c(nc5nncn35)CCC4)CC2)c1C | inactive: 5.02% |
| Cc1csc(=O)n1CCC(=O)OCc1nnc(-c2ccccc2Cl)o1 | inactive: 37.2% |

Reference: PubChem BioAssay AID1347073 (National Center for Advancing Translational Sciences (NCATS), 2019)
